The values below come from PMC12820563, “FoxP3 forms a head-to-head dimer in vivo and stabilizes its multimerization on adjacent microsatellites”.

This is one part of the list.

In the test the target is T1, MBP-FoxP1dN (Mus musculus, UniProt P58462 326-579).
T1 sequence: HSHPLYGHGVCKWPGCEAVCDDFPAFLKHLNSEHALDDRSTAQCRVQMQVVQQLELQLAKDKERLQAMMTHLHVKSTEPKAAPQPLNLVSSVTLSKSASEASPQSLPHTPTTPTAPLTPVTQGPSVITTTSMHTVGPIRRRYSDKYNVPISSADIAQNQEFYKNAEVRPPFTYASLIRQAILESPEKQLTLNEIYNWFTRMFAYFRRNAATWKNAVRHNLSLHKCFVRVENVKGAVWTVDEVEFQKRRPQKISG
Nature of the test: PD-seq (MBP pull-down with sequencing); 20 mM Tris-HCl pH 7.5, 100 mM NaCl, 1.5 mM MgCl2, 0.4 uM protein, 0.1 uM dsDNA library, 30 min, room temperature, amylose pull-down; high values mean tight binding. Particulars: protein: recombinant; tags: His6-MBP; chain copies: 2; dsDNA, one strand shown. The method, boiled down:
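In Tris pH 7.5 buffer with NaCl and MgCl2, 0.4 µM His6-MBP-tagged mouse FoxP3 or FoxP1 fragment lacking the N-terminus, from E. coli, met 0.1 µM Klenow-filled double-stranded degenerate DNA library for 30 min at room temperature. Three washes on amylose resin followed capture of the complexes, then proteinase K release of DNA, PCR barcoding and Illumina sequencing. Binding is taken as pooled-replicate reads-per-million enrichment of pull-down relative to input.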
With “GATGATTGTTCTCCCAGCTGATGAATTGGATTGGTCGAGTAAACAAATTTTCCTAATCTTTCTGTTCAAGCGCCATCTAC”, the binding signal was 0.827 RPM ratio (pull-down/input).
Next, “GATGATTGTTCTCCCAGCTGATGAATTTTCTCGTTCGAGTAAACAAATTTTCCTAATCTTTCTGTTCAAGCGCCATCTAC”: 0.939 RPM ratio (pull-down/input); “GATGATTGTTCTCCCAGCTGATGAATTGGTATGGTCGAGTAAACAAATTTTCCTAATCTTTCTGTTCAAGCGCCATCTAC”: 1.02 RPM ratio (pull-down/input); “GATGATTGTTCTCCCAGCTGATGAATTAATAACATCGAGTAAACAAATTTTCCTAATCTTTCTGTTCAAGCGCCATCTAC”: 2.02 RPM ratio (pull-down/input).
As for “GATGATTGTTCTCCCAGCTGATGAATTATCTGCCTCGAGTAAACAAATTTTCCTAATCTTTCTGTTCAAGCGCCATCTAC”, the binding signal is 0.974 RPM ratio (pull-down/input).
The result for “GATGATTGTTCTCCCAGCTGATGAATTATCCGCCTCGAGTAAACAAATTTTCCTAATCTTTCTGTTCAAGCGCCATCTAC” reads 0.957 RPM ratio (pull-down/input); that for “GATGATTGTTCTCCCAGCTGATGAATTGTGCCAGTCGAGTAAACAAATTTTCCTAATCTTTCTGTTCAAGCGCCATCTAC”, 0.926 RPM ratio (pull-down/input).
The result for “GATGATTGTTCTCCCAGCTGATGAATTATGGTCGTCGAGTAAACAAATTTTCCTAATCTTTCTGTTCAAGCGCCATCTAC” reads 0.971 RPM ratio (pull-down/input); that for “GATGATTGTTCTCCCAGCTGATGAATTGCGTCTCTCGAGTAAACAAATTTTCCTAATCTTTCTGTTCAAGCGCCATCTAC”, 1.01 RPM ratio (pull-down/input); that for “GATGATTGTTCTCCCAGCTGATGAATTTGCACTCTCGAGTAAACAAATTTTCCTAATCTTTCTGTTCAAGCGCCATCTAC”, 1.04 RPM ratio (pull-down/input).
The result for “GATGATTGTTCTCCCAGCTGATGAATTTACCTGTTCGAGTAAACAAATTTTCCTAATCTTTCTGTTCAAGCGCCATCTAC” reads 1.25 RPM ratio (pull-down/input); that for “GATGATTGTTCTCCCAGCTGATGAATTTAATAAATCGAGTAAACAAATTTTCCTAATCTTTCTGTTCAAGCGCCATCTAC”, 1.25 RPM ratio (pull-down/input); that for “GATGATTGTTCTCCCAGCTGATGAATTATTTCTATCGAGTAAACAAATTTTCCTAATCTTTCTGTTCAAGCGCCATCTAC”, 1.13 RPM ratio (pull-down/input).
As for “GATGATTGTTCTCCCAGCTGATGAATTCTGTGCTTCGAGTAAACAAATTTTCCTAATCTTTCTGTTCAAGCGCCATCTAC”, the binding signal was 0.975 RPM ratio (pull-down/input).
Next, “GATGATTGTTCTCCCAGCTGATGAATTTGAGAACTCGAGTAAACAAATTTTCCTAATCTTTCTGTTCAAGCGCCATCTAC”: 0.767 RPM ratio (pull-down/input); “GATGATTGTTCTCCCAGCTGATGAATTAGACAGTTCGAGTAAACAAATTTTCCTAATCTTTCTGTTCAAGCGCCATCTAC”: 0.913 RPM ratio (pull-down/input); “GATGATTGTTCTCCCAGCTGATGAATTTTATAGTTCGAGTAAACAAATTTTCCTAATCTTTCTGTTCAAGCGCCATCTAC”: 0.932 RPM ratio (pull-down/input).
Next, “GATGATTGTTCTCCCAGCTGATGAATTATCGACTTCGAGTAAACAAATTTTCCTAATCTTTCTGTTCAAGCGCCATCTAC”: 0.945 RPM ratio (pull-down/input); “GATGATTGTTCTCCCAGCTGATGAATTGAGCCCTTCGAGTAAACAAATTTTCCTAATCTTTCTGTTCAAGCGCCATCTAC”: 0.844 RPM ratio (pull-down/input).
Take “GATGATTGTTCTCCCAGCTGATGAATTTCGTTTGTCGAGTAAACAAATTTTCCTAATCTTTCTGTTCAAGCGCCATCTAC”: the binding signal is 1.18 RPM ratio (pull-down/input).
Take “GATGATTGTTCTCCCAGCTGATGAATTCTAGTTATCGAGTAAACAAATTTTCCTAATCTTTCTGTTCAAGCGCCATCTAC”: the binding signal is 1.11 RPM ratio (pull-down/input).
Next, “GATGATTGTTCTCCCAGCTGATGAATTGACTAGCTCGAGTAAACAAATTTTCCTAATCTTTCTGTTCAAGCGCCATCTAC”: 0.953 RPM ratio (pull-down/input); “GATGATTGTTCTCCCAGCTGATGAATTGATCTACTCGAGTAAACAAATTTTCCTAATCTTTCTGTTCAAGCGCCATCTAC”: 1.03 RPM ratio (pull-down/input).
Next, “GATGATTGTTCTCCCAGCTGATGAATTGGCGGCTTCGAGTAAACAAATTTTCCTAATCTTTCTGTTCAAGCGCCATCTAC”: 0.752 RPM ratio (pull-down/input).
For “GATGATTGTTCTCCCAGCTGATGAATTCGCATAATCGAGTAAACAAATTTTCCTAATCTTTCTGTTCAAGCGCCATCTAC”, the binding signal is 1.22 RPM ratio (pull-down/input).
The result for “GATGATTGTTCTCCCAGCTGATGAATTACCAGCCTCGAGTAAACAAATTTTCCTAATCTTTCTGTTCAAGCGCCATCTAC” reads 0.937 RPM ratio (pull-down/input); that for “GATGATTGTTCTCCCAGCTGATGAATTCAGCTTCTCGAGTAAACAAATTTTCCTAATCTTTCTGTTCAAGCGCCATCTAC”, 0.851 RPM ratio (pull-down/input).
With “GATGATTGTTCTCCCAGCTGATGAATTGACGCTGTCGAGTAAACAAATTTTCCTAATCTTTCTGTTCAAGCGCCATCTAC”, the binding signal is 1.05 RPM ratio (pull-down/input).
The result for “GATGATTGTTCTCCCAGCTGATGAATTAACCCGGTCGAGTAAACAAATTTTCCTAATCTTTCTGTTCAAGCGCCATCTAC” reads 0.782 RPM ratio (pull-down/input).
As to “GATGATTGTTCTCCCAGCTGATGAATTAAGGTAATCGAGTAAACAAATTTTCCTAATCTTTCTGTTCAAGCGCCATCTAC”, the binding signal is 1.47 RPM ratio (pull-down/input).
The result for “GATGATTGTTCTCCCAGCTGATGAATTGATCGGTTCGAGTAAACAAATTTTCCTAATCTTTCTGTTCAAGCGCCATCTAC” reads 0.898 RPM ratio (pull-down/input).
